From the supplement of paper PMC12217912
This is one part of the list. Sequences were assembled here from the parent chain. Values near 0.05 are background.

B1: TEV protease; numbered along this chain (parent)
chain: MGESLFKGPRDYNPISSSICHLTNESDGHTTSLYGIGFGPFIITNKHLFRRNNGTLVVQSLHGVFKVKDTTTLQQHLVDGRDMIIIRMPKDFPPFPQKLKFREPQREERICLVTTNFQTKSMSSMVSDTSCTFPSGDGIFWKHWIQTKDGQCGSPLVSTRDGFIVGIHSASNFTNTNNYFTSVPKNFMELLTNQEAQQWVSGWRLNADSVLWGGHKVFMVKPEEPFQPVKEATQL

Variants of: B1
Assay: raw area under fraction-flipped curve 0-4 h after induction (AUC4h, not background-subtracted), DNA-recorder readout of cleavage of the substrate (dimensionless); higher = more cleavage of the substrate by the protease variant
Settings: temperature: 34 °C; time window: 0-4 h after rhamnose induction
Procedure: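 In vivo DNA recorder in E. coli TOP10(DE3) ΔrhaA at 34 °C. Each TEVp single-site mutant (parent TEVp 0) is paired with a single-site variant of the 7-mer TEVs (canonical ENLYFQ|S). The substrate sits between flexible linkers in a Bxb1-sfGFP-TEVs-SsrA fusion, so cleavage stabilises Bxb1 and speeds flipping of a recombination array, read by NGS. The value is the raw area under the fraction-flipped curve over 0-4 h after rhamnose induction (AUC4h), with ≥20 reads per time point. It is not background-subtracted; inactive controls average about 0.047.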
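Also: Bxb1 expression induced with 0.2% (w/v) L-rhamnose at OD600 near 0.5, cultures sampled hourly, flipped fraction per protease–substrate barcode pair counted by paired-end Illumina sequencing.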

Variant | area with substrate EALYFQS | area with substrate ECLYFQS | area with substrate EDLYFQS | area with substrate EELYFQS | area with substrate EFLYFQS | area with substrate EGLYFQS | area with substrate EHLYFQS | area with substrate EILYFQS | area with substrate EKLYFQS | area with substrate EMLYFQS | area with substrate EPLYFQS | area with substrate EQLYFQS | area with substrate ERLYFQS | area with substrate ESLYFQS | area with substrate EWLYFQS | area with substrate EYLYFQS | area with substrate ELLYFQS | area with substrate EVLYFQS | area with substrate ETLYFQS
L48I | 0.0931 | 0.0746 | 0.106 | 0.0758 | 0.0897 | 0.0769 | 0.0811 | 0.0695 | 0.0996 | 0.0954 | 0.109 | 0.0934 | 0.0858 | 0.0803 | 0.08 | 0.0988 | – | – | –
L48N | 0.0639 | 0.0592 | 0.0622 | 0.0538 | 0.0675 | 0.0547 | 0.0623 | 0.0631 | – | 0.0849 | – | 0.0707 | 0.0808 | 0.0599 | 0.0521 | – | 0.0632 | 0.0581 | –
L48Q | 0.0379 | 0.0617 | 0.0401 | 0.0587 | 0.0489 | 0.0461 | – | 0.054 | 0.0545 | 0.0545 | 0.0566 | – | 0.0582 | 0.074 | – | – | 0.0669 | 0.0616 | 0.0546
L48S | 0.0666 | 0.062 | 0.0857 | 0.0683 | 0.0654 | 0.0748 | – | 0.0583 | 0.0558 | 0.0925 | – | 0.0667 | 0.0664 | 0.0572 | 0.061 | – | 0.0676 | 0.0541 | 0.0799
L48V | 0.0732 | 0.0635 | 0.0798 | 0.066 | 0.0651 | 0.0601 | 0.0558 | 0.0565 | 0.0753 | 0.0623 | 0.0821 | 0.0712 | 0.0741 | 0.0719 | – | 0.0697 | – | 0.0679 | 0.0664
N52W | 0.063 | 0.0688 | 0.0809 | 0.0755 | 0.0664 | 0.0779 | 0.0699 | 0.0578 | 0.0662 | 0.0698 | 0.0819 | 0.0962 | 0.0283 | 0.0708 | 0.0611 | 0.0632 | 0.0652 | 0.076 | 0.0665
G54I | 0.0607 | 0.0745 | 0.0757 | 0.0499 | 0.0657 | 0.0595 | – | 0.0556 | – | 0.0628 | – | 0.0659 | – | 0.072 | 0.065 | – | 0.061 | 0.0688 | –
L56M | 0.139 | 0.0909 | – | – | 0.107 | – | – | 0.0867 | 0.13 | 0.111 | – | – | 0.106 | 0.103 | – | 0.103 | 0.0864 | 0.101 | –
L56S | 0.0571 | – | 0.0507 | – | – | 0.0464 | 0.0519 | 0.0276 | 0.0575 | 0.0611 | 0.062 | 0.0492 | 0.047 | 0.0603 | – | – | 0.0503 | – | –
L56T | 0.063 | – | 0.0748 | 0.0569 | 0.0795 | – | – | – | 0.055 | 0.0697 | 0.0853 | 0.073 | 0.0759 | 0.0454 | – | 0.108 | 0.059 | 0.0609 | –
L56Y | 0.066 | 0.0761 | 0.0562 | – | – | – | – | – | 0.0676 | 0.051 | – | – | – | 0.0516 | 0.0524 | – | 0.0586 | 0.0383 | –
L61G | 0.126 | 0.137 | 0.185 | 0.123 | 0.12 | 0.0975 | – | 0.0942 | 0.0982 | 0.133 | 0.127 | 0.123 | 0.12 | 0.101 | – | 0.0964 | – | 0.103 | –
V64C | 0.0981 | 0.125 | 0.122 | 0.107 | 0.0979 | – | 0.116 | 0.0941 | 0.104 | 0.13 | 0.122 | 0.113 | 0.136 | 0.113 | 0.0764 | 0.117 | 0.0826 | 0.114 | 0.113
V64T | 0.109 | 0.115 | 0.0897 | – | – | – | 0.109 | – | 0.0972 | 0.114 | – | 0.127 | – | 0.102 | – | – | – | – | –
T72H | 0.113 | 0.0874 | 0.111 | – | – | – | 0.0959 | 0.0635 | 0.107 | – | 0.106 | – | – | 0.0876 | 0.0873 | 0.0666 | – | 0.0952 | –
T72S | 0.134 | 0.098 | 0.11 | 0.101 | – | – | – | – | – | 0.103 | – | 0.092 | 0.0952 | 0.0924 | – | – | – | 0.0775 | 0.109
T72V | 0.068 | 0.12 | 0.115 | 0.0605 | – | 0.095 | 0.106 | – | 0.0765 | 0.136 | 0.113 | 0.107 | – | 0.0851 | 0.0753 | 0.144 | – | 0.0744 | 0.0878
Q75P | 0.0623 | 0.0524 | 0.0655 | 0.0566 | 0.0712 | 0.065 | 0.0633 | 0.059 | 0.0531 | 0.0545 | 0.0576 | 0.091 | – | 0.0585 | 0.0719 | – | 0.0616 | 0.0591 | 0.0518
G80C | 0.121 | 0.0927 | 0.181 | – | – | 0.102 | 0.123 | 0.0996 | 0.0316 | 0.117 | 0.102 | 0.136 | – | 0.0911 | 0.107 | – | 0.0838 | 0.093 | –
G80K | 0.116 | 0.0917 | – | – | 0.103 | 0.0938 | – | 0.0892 | 0.109 | 0.11 | 0.104 | 0.112 | 0.072 | 0.0802 | 0.0784 | 0.0965 | 0.089 | 0.119 | –
G80N | 0.105 | 0.0895 | – | – | 0.0991 | 0.0973 | – | 0.0966 | 0.101 | – | – | 0.11 | 0.156 | 0.117 | 0.155 | – | 0.119 | 0.102 | 0.176
G80P | 0.0873 | – | 0.114 | – | – | – | – | – | – | 0.0741 | – | 0.0748 | – | 0.0594 | 0.0851 | – | – | – | –
R81N | 0.0747 | 0.0781 | 0.126 | 0.143 | 0.0892 | 0.068 | – | 0.0597 | – | 0.0744 | 0.104 | 0.0929 | 0.0687 | 0.0706 | – | 0.0445 | 0.0583 | – | 0.0745
R81T | 0.0715 | 0.0693 | 0.0859 | 0.0837 | 0.086 | – | 0.0845 | 0.0654 | 0.0728 | – | 0.0753 | 0.0732 | 0.0822 | 0.0745 | 0.0917 | 0.0619 | 0.0643 | 0.0736 | 0.0629
M88E | 0.0573 | 0.0514 | 0.0239 | 0.0501 | – | 0.0658 | 0.0664 | – | – | – | 0.0435 | 0.0627 | – | 0.0531 | 0.115 | – | 0.0436 | – | –
M88G | 0.0759 | – | 0.0852 | – | – | – | 0.0666 | 0.0655 | 0.071 | 0.0642 | – | – | 0.0808 | 0.0732 | 0.066 | – | – | 0.0802 | 0.119
